Measured values taken from the supplement of paper PMC10441789.
Some of the results follow. Antibody binding of pooled human sera (four to six donors per pool; dilution not stated) to peptides of the Trypanosoma cruzi antigen TSSA on microarrays. Quantile-normalised fluorescence in arbitrary units, mean of duplicate arrays; higher = more binding. No active / inactive call. The uninfected pools are read here as the healthy donors of the same country. The strongest signals lie near the top of the scale (about 60,000).

Test system: pooled sera of uninfected people, Brazil
Assay: antibody binding signal (normalised fluorescence) (arbitrary fluorescence units); higher = stronger serum antibody binding to peptide
Protocol: (§1)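 Microarray of 15-residue peptides over residues 30-55 of Trypanosoma cruzi TSSAII, each with 1 to 10 substitutions at naturally variable positions, probed with one serum pool per country.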

Sequence	antibody binding signal
STPPSGKEKKAAAGG	140
KAAAGGTPSQSGASS	599
TDNKTAAGEAPSPPG	274
KKAATGEAPSQSGAS	106
TDNKTATGETPSQPG	383
KDKKPATGEAPSQPG	193
TDKKPATGGAPSPSG	166
KDNKTATGGTPSPSG	188
KTAAGGTPSPPGASS	494
KDNKTATGGAPSQSG	123
SGKENKAATGGAPSP	86.1
ENKPATGETPSQPGA	448
KKAATGEAPSPPGAS	107
GTENKAAAGETPSPP	103
TPPSGTENKPATGGT	1230
TEKKPAAGGAPSQSG	651
GTDNKTAAGGTPSPP	2900
GKENKAATGGTPSPS	136
KPATGETPSQPGASS	438
GKDNKPAAGGTPSQP	433

Sequence	antibody binding signal
GTENKAATGETPSPP	125
KKTAAGEAPSQSGAS	116
SGTENKAATGEAPSP	161
GKENKAATGETPSQS	118
KEKKAATGETPSQPG	115
GKDKKPATGGAPSPP	90
SSTPPSGTENKTAAG	511
TDKKTATGGAPSQPG	172
TPPSGTDNKPAAGGA	883
TENKAAAGETPSPPG	126
ISTPPSGKEKKAAAG	123
KKTAAGGTPSQSGAS	908
GKENKAAAGETPSPP	88.1
GKDNKAAAGGAPSPP	97
GKDNKPATGETPSQS	250
SGKDKKTAAGGTPSQ	244
TPPSGKDNKTATGGA	139
KKPATGETPSPPGAS	104
KEKKAATGETPSPSG	93.9
GKDNKAAAGGTPSPP	345

Test system: pooled sera of uninfected people, Colombia
Assay: as above
Protocol: as §1

Sequence	antibody binding signal
STPPSGKEKKAAAGG	265
KAAAGGTPSQSGASS	177
TDNKTAAGEAPSPPG	151
KKAATGEAPSQSGAS	207
TDNKTATGETPSQPG	246
KDKKPATGEAPSQPG	172
TDKKPATGGAPSPSG	227
KDNKTATGGTPSPSG	264
KTAAGGTPSPPGASS	190
KDNKTATGGAPSQSG	177
SGKENKAATGGAPSP	346
ENKPATGETPSQPGA	218
KKAATGEAPSPPGAS	303
GTENKAAAGETPSPP	149
TPPSGTENKPATGGT	754
TEKKPAAGGAPSQSG	142
GTDNKTAAGGTPSPP	364
GKENKAATGGTPSPS	142
KPATGETPSQPGASS	214
GKDNKPAAGGTPSQP	179

Sequence	antibody binding signal
GTENKAATGETPSPP	201
KKTAAGEAPSQSGAS	277
SGTENKAATGEAPSP	158
GKENKAATGETPSQS	170
KEKKAATGETPSQPG	222
GKDKKPATGGAPSPP	112
SSTPPSGTENKTAAG	893
TDKKTATGGAPSQPG	101
TPPSGTDNKPAAGGA	485
TENKAAAGETPSPPG	83.8
ISTPPSGKEKKAAAG	223
KKTAAGGTPSQSGAS	115
GKENKAAAGETPSPP	142
GKDNKAAAGGAPSPP	159
GKDNKPATGETPSQS	304
SGKDKKTAAGGTPSQ	178
TPPSGKDNKTATGGA	233
KKPATGETPSPPGAS	233
KEKKAATGETPSPSG	225
GKDNKAAAGGTPSPP	167

Test system: pooled sera of uninfected people, Mexico
Assay: as above
Protocol: as §1

Sequence	antibody binding signal
STPPSGKEKKAAAGG	91.6
KAAAGGTPSQSGASS	649
TDNKTAAGEAPSPPG	113
KKAATGEAPSQSGAS	204
TDNKTATGETPSQPG	143
KDKKPATGEAPSQPG	128
TDKKPATGGAPSPSG	144
KDNKTATGGTPSPSG	106
KTAAGGTPSPPGASS	746
KDNKTATGGAPSQSG	126
SGKENKAATGGAPSP	201
ENKPATGETPSQPGA	1700
KKAATGEAPSPPGAS	85.8
GTENKAAAGETPSPP	198
TPPSGTENKPATGGT	1080
TEKKPAAGGAPSQSG	207
GTDNKTAAGGTPSPP	1450
GKENKAATGGTPSPS	89.7
KPATGETPSQPGASS	1410
GKDNKPAAGGTPSQP	386

Sequence	antibody binding signal
GTENKAATGETPSPP	132
KKTAAGEAPSQSGAS	98.4
SGTENKAATGEAPSP	123
GKENKAATGETPSQS	153
KEKKAATGETPSQPG	95.6
GKDKKPATGGAPSPP	86.2
SSTPPSGTENKTAAG	526
TDKKTATGGAPSQPG	292
TPPSGTDNKPAAGGA	1250
TENKAAAGETPSPPG	142
ISTPPSGKEKKAAAG	91
KKTAAGGTPSQSGAS	227
GKENKAAAGETPSPP	123
GKDNKAAAGGAPSPP	83.1
GKDNKPATGETPSQS	1740
SGKDKKTAAGGTPSQ	118
TPPSGKDNKTATGGA	94.9
KKPATGETPSPPGAS	512
KEKKAATGETPSPSG	122
GKDNKAAAGGTPSPP	80.2
